According to the supplement of paper PMC10369915:
This is one part of the list. No stated cut-off is given here; in the data, active = 3.2 or more and inactive = the rest. Most of these values are background signal.

Columns and labels:
Assay in all cases: enrichment score (SH2-bound / input frequency) (ratio); bacterial display of known human phosphotyrosine sites (pTyr-Var adds point mutants) read by sequencing; higher = stronger binding; tyrosines were phosphorylated by kinases first
Conditions in all cases: peptide library: Human pTyr
SHP2 C-SH2 domain E139D = molecular target: SHP2 C-SH2 domain E139D
[1] = molecular target: SHP2 C-SH2 domain wild-type
SHP2 N-SH2 domain L43F = molecular target: SHP2 N-SH2 domain L43F
SHP2 N-SH2 domain T42A = molecular target: SHP2 N-SH2 domain T42A
SHP2 N-SH2 domain T52S = molecular target: SHP2 N-SH2 domain T52S
[2] = molecular target: SHP2 N-SH2 domain wild-type

Measured: enrichment score
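Further: displayed peptides selected on beads carrying the immobilized SH2 domain, with library peptides lacking any tyrosine serving as negative controls.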

GGMADPKYADLPGIA [DCTN2_HUMAN_6]
inactive: SHP2 C-SH2 domain E139D 0.67 | [1] 0.507 | SHP2 N-SH2 domain L43F 0.596 | SHP2 N-SH2 domain T42A 0.622 | SHP2 N-SH2 domain T52S 0.534 | [2] 0.606

YRLLLATYARPPRGP [DDR1_HUMAN_520]
inactive: SHP2 C-SH2 domain E139D 0.74 | [1] 0.595 | SHP2 N-SH2 domain L43F 0.613 | SHP2 N-SH2 domain T42A 0.696 | SHP2 N-SH2 domain T52S 0.716 | [2] 0.699

ARLLLATYARPPRGP [DDR1_HUMAN_520_YA]
inactive: SHP2 C-SH2 domain E139D 0.742 | [1] 0.605 | SHP2 N-SH2 domain L43F 0.569 | SHP2 N-SH2 domain T42A 0.525 | SHP2 N-SH2 domain T52S 0.782 | [2] 0.671

AQGPTISYPMLLHVA [DDR1_HUMAN_740]
inactive: SHP2 C-SH2 domain E139D 0.787 | [1] 0.734 | SHP2 N-SH2 domain L43F 0.99 | SHP2 N-SH2 domain T42A 0.863 | SHP2 N-SH2 domain T52S 0.914 | [2] 0.749

NLAAGDAYRVQGRAV [DDR1_HUMAN_797_YA]
inactive: SHP2 C-SH2 domain E139D 0.783 | [1] 0.583 | SHP2 N-SH2 domain L43F 0.737 | SHP2 N-SH2 domain T42A 0.7 | SHP2 N-SH2 domain T52S 0.709 | [2] 0.786

EQGSNSTYDRIFPLR [DDR2_HUMAN_471]
inactive: SHP2 C-SH2 domain E139D 0.6 | [1] 0.412 | SHP2 N-SH2 domain L43F 0.618 | SHP2 N-SH2 domain T42A 0.474 | SHP2 N-SH2 domain T52S 0.473 | [2] 0.439

DEEMLFIYGHYKQAT [ACBP_HUMAN_29]
inactive: SHP2 C-SH2 domain E139D 1.69 | [1] 1.78 | SHP2 N-SH2 domain L43F 1.64 | SHP2 N-SH2 domain T42A 1.4 | SHP2 N-SH2 domain T52S 2.33 | [2] 2.26

FGMSRNLYSGDYYRI [DDR2_HUMAN_736]
inactive: SHP2 C-SH2 domain E139D 0.823 | [1] 0.898 | SHP2 N-SH2 domain L43F 0.689 | SHP2 N-SH2 domain T42A 0.821 | SHP2 N-SH2 domain T52S 0.752 | [2] 0.885

FGMSRNLYSGDAARI [DDR2_HUMAN_736_YA]
inactive: SHP2 C-SH2 domain E139D 0.468 | [1] 0.475 | SHP2 N-SH2 domain L43F 0.644 | SHP2 N-SH2 domain T42A 0.575 | SHP2 N-SH2 domain T52S 0.543 | [2] 0.555

NLYSGDYYRIQGRAV [DDR2_HUMAN_741]
inactive: SHP2 C-SH2 domain E139D 0.943 | [1] 0.899 | SHP2 N-SH2 domain L43F 0.779 | SHP2 N-SH2 domain T42A 0.85 | SHP2 N-SH2 domain T52S 0.804 | [2] 0.945

NLASGDAYRIQGRAV [DDR2_HUMAN_741_YA]
inactive: SHP2 C-SH2 domain E139D 0.769 | [1] 0.625 | SHP2 N-SH2 domain L43F 0.708 | SHP2 N-SH2 domain T42A 0.666 | SHP2 N-SH2 domain T52S 0.652 | [2] 0.687

DEEMLFIYGHAKQAT [ACBP_HUMAN_29_YA]
inactive: SHP2 C-SH2 domain E139D 1 | [1] 0.874 | SHP2 N-SH2 domain L43F 0.916 | SHP2 N-SH2 domain T42A 0.826 | SHP2 N-SH2 domain T52S 1.17 | [2] 1.01

NGMNQQAYAYPATAA [DDX5_HUMAN_593]
inactive: SHP2 C-SH2 domain E139D 0.651 | [1] 0.636 | SHP2 N-SH2 domain L43F 0.565 | SHP2 N-SH2 domain T42A 0.654 | SHP2 N-SH2 domain T52S 0.604 | [2] 0.638

ILPPSSIYPSVLASG [DGKA_HUMAN_335]
inactive: SHP2 C-SH2 domain E139D 0.725 | [1] 0.555 | SHP2 N-SH2 domain L43F 0.707 | SHP2 N-SH2 domain T42A 0.501 | SHP2 N-SH2 domain T52S 0.648 | [2] 0.515

AQAQPEDYARFEAKI [DLG2_HUMAN_505_YA]
inactive: SHP2 C-SH2 domain E139D 0.944 | [1] 1.11 | SHP2 N-SH2 domain L43F 0.987 | SHP2 N-SH2 domain T42A 0.766 | SHP2 N-SH2 domain T52S 0.763 | [2] 0.95

AGIAQGVYSRALLGN [ACD11_HUMAN_324_YA]
inactive: SHP2 C-SH2 domain E139D 0.643 | [1] 0.447 | SHP2 N-SH2 domain L43F 0.42 | SHP2 N-SH2 domain T42A 0.459 | SHP2 N-SH2 domain T52S 0.569 | [2] 0.65

YEIDGRDYHFVSSRE [DLG4_HUMAN_580]
inactive: SHP2 C-SH2 domain E139D 0.715 | [1] 0.583 | SHP2 N-SH2 domain L43F 0.683 | SHP2 N-SH2 domain T42A 0.483 | SHP2 N-SH2 domain T52S 0.503 | [2] 0.638

WGRGTDEYFIRKPPS [ACHB_HUMAN_390]
inactive: SHP2 C-SH2 domain E139D 1.72 | [1] 1.38 | SHP2 N-SH2 domain L43F 1.5 | SHP2 N-SH2 domain T42A 1.43 | SHP2 N-SH2 domain T52S 1.89 | [2] 2.11
